# In all, about 310,000 compounds went through this assay and about 2,200 (0.71%) showed an effect of 50% or more. Effects have a minus sign here. The list shows a part of the results.
# Target: human ether-à-go-go-related gene (hERG) potassium channel (human, UniProt Q12809)
# Test: primary screen, population patch clamp on CHO cells stably expressing hERG
# human ether-à-go-go-related gene (hERG) potassium channel, sequence (Q12809 whole entry, looked up): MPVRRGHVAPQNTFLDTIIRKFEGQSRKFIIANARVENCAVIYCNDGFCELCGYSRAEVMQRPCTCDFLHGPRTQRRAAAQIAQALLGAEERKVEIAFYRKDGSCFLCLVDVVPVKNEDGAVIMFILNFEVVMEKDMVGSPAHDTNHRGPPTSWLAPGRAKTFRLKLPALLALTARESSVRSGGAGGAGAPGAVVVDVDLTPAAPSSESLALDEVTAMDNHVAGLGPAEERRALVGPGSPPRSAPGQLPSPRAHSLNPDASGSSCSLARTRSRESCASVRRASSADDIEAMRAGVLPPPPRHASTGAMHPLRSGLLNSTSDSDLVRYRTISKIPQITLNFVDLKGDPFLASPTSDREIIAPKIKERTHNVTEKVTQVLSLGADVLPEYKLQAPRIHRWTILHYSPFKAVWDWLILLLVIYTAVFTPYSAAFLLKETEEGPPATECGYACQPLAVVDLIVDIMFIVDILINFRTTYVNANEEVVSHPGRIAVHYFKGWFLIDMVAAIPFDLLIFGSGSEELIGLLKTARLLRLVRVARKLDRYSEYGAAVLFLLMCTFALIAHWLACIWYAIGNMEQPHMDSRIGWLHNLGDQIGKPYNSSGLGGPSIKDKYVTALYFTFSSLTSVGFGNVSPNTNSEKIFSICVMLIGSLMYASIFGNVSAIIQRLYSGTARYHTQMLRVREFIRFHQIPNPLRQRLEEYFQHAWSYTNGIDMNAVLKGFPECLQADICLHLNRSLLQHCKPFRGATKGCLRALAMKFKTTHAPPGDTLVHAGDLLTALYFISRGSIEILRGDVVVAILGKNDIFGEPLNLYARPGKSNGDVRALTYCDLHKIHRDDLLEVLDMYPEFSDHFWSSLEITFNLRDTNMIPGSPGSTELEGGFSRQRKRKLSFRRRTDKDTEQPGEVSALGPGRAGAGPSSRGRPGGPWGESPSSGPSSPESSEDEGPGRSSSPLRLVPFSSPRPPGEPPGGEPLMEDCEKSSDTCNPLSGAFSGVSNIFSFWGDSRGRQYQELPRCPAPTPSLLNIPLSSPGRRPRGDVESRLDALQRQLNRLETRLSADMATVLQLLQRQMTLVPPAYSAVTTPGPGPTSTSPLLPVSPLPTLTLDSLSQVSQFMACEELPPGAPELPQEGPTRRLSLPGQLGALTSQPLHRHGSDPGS
row,SMILES,"hERG current change (%, negative = inhibition) at 1uM [%]"
1,Cc1onc(-c2ccccc2Cl)c1C(=O)N1CCN(c2ncccn2)CC1,9.94
2,COc1cc(Br)cc2cc(C(=O)N3CCOCC3)c(=O)oc12,11.2
3,O=C(CCN1CCN(Cc2ccccc2)CC1)Nc1ccc(OCc2ccccc2)cc1,-6.62
4,COc1ccc(-c2cc3ncccc3cn2)cc1,12.7
5,COc1ccc(C(NC(C)=O)c2ccc3cccnc3c2O)c(OC)c1 (centres unmarked),6.27
6,CCc1c(C)nc2c(-c3ccccc3)c(-c3ccccc3)[nH]n2c1=O,14.3
7,O=C(NC1CCc2ccccc21)c1cc(COc2c(F)cccc2F)on1 (centres unmarked),11.3
8,Br.Nc1nc2c(s1)CCc1ccccc1-2,13.3
9,O=C(NCCCNC(=O)c1ccco1)c1ccc(F)cc1,9.67
10,CC(C)(C)c1ccc(-c2noc(CNC(=O)c3ccco3)n2)cc1,9.73
11,O=C(Nc1ncn[nH]1)c1ccc(Cl)c(S(=O)(=O)Nc2ccc(Cl)cc2)c1,9.48
12,COc1ccc(/C=C/C(=O)NC(=S)Nc2ccccc2)cc1OC,11.7
13,CC(=O)c1cc(-c2ccccc2)n(CCC(=O)NC2CCCCC2)c1C,7.83
14,Cc1ccc(C(=O)OCC(=O)Nc2ccc(S(N)(=O)=O)cc2)c(O)c1,7.79
15,Oc1ccc(-c2[nH]ncc2-c2nc3ccccc3s2)c(O)c1,11.2
16,CCOC(=O)CCC(=O)N(CCN(C(=O)CCC(=O)OCC)c1ccccc1)c1ccccc1,8.84
17,CCC1=[N+](CC(=O)c2ccc(C)cc2)CCn2c(C)ccc21.[Br-],6.4
18,NS(=O)(=O)c1cccc(NC(=O)COC(=O)C2CCCCC2)c1,12.1
19,O=C(Cc1c(F)cccc1Cl)Nc1ccccc1-c1ccccc1,4.56
20,COc1ccc(Cl)cc1-c1n[nH]c(=S)n1C1CCCCC1,12

row,SMILES,"hERG current change (%, negative = inhibition) at 1uM [%]"
1,CCCC(C)C(=O)Nc1ccc2c(c1)OCCO2 (centres unmarked),6.88
2,O=C(O)c1[nH]c(=O)[nH]c(=O)c1F,15.1
3,CC(=O)c1cccc(Oc2ncccn2)c1,17.2
4,Cc1ccc(-n2ncc3c(NCC4CCCO4)ncnc32)c(C)c1 (centres unmarked),10
5,COc1cccc(-c2nc3cc(C)ccc3o2)c1,14.8
6,O=C(/C=C/c1cccs1)NC(=S)Nc1ccc(C(=O)O)cc1,9.2
7,CCc1ccc(C(c2ccc(CC)cc2)C(Cl)Cl)cc1,15.9
8,Cc1ccccc1-c1nnc(SCC(=O)NCC2CCCO2)o1 (centres unmarked),10.1
9,CCCC(=O)N1CCc2cc(OC)c(OC)cc2C1c1cc2cc3c(cc2[nH]c1=O)OCO3 (centres unmarked),8.02
10,O=C(CC1C(=O)NCCN1Cc1c(F)cccc1Cl)NCc1ccccc1 (centres unmarked),13
11,O=C(O)c1ccccc1C(=O)OCCc1cc2ccccc2c(=O)o1,11.8
12,O=C(NCc1ccccc1)N1CCN(c2ccccc2F)CC1,4.57
13,COc1ccc(OC)c(S(=O)(=O)N2CCC(C(=O)N3CCN(Cc4ccccc4)CC3)CC2)c1,4.62
14,Cc1ccc(-c2noc(CSc3nnnn3-c3ccccc3)n2)cc1,21.3
15,CC1CC[C@@]2(OC1)O[C@H]1CC3[C@@H]4C[C@@H](O)[C@@]5(O)C[C@@H](O)[C@H](O)C[C@]5(C)[C@H]4CC[C@]3(C)[C@H]1[C@@H]2C (some centres unmarked),10.3
16,COc1ccc(-n2c(C)cc(C(=O)CN3CCC(C)CC3)c2C)cc1,-0.0538
17,OCCN1CCOCCN(CCO)CCN(CCO)CC1,7.33
18,CCOc1ccccc1NC(=O)CN(C)S(=O)(=O)c1cnc[nH]1,26.5
19,Clc1nc(-c2ccccc2)cc(-c2ccc(Br)cc2)n1,9.63
20,CCN(CCCNC(=O)COc1cc(=O)n(C)c2ccccc12)c1cccc(C)c1,-4.75

row,SMILES,"hERG current change (%, negative = inhibition) at 1uM [%]"
1,CN(CC(=O)Nc1ccccc1Br)C(=O)Cn1[nH]c(=O)c2ccccc2c1=O,11.3
2,COC(=O)Cn1nc(-c2ccccc2)c2ccccc21,6.61
3,CN1CCN(c2ccc(C(F)(F)F)cc2N)CC1,7.91
4,CCOC(=O)c1cccc(NC(=O)CN2C(=O)C3CC=CCC3C2=O)c1 (centres unmarked),-1.8
5,COc1ccc2[nH]cc(CCCN3C(=O)c4ccccc4C3=O)c2c1,5.85
6,COc1ccccc1C(=O)NNC(=O)c1ccc2ccccc2c1,5.63
7,CCn1c(SCc2nc3ccccc3c(=O)[nH]2)nnc1-c1ccncc1,6.92
8,CC(=O)NC(CC(=O)N1CCN(C(C)=O)CC1)c1ccccc1 (centres unmarked),21.2
9,CCCCn1c(=O)c(C(=O)Nc2ncccc2C)c(O)c2ccccc21,13.5
10,Cn1c(CN2CCCCC2)nc2cc(NC(=O)c3cccs3)ccc21,6.23
11,COc1ccc(NS(=O)(=O)c2cc(NC(=O)CNC(=O)c3ccc(C)s3)ccc2Cl)cc1,7.92
12,Cc1nnc(SCC(=O)c2c(N)n(C)c(=O)n(C)c2=O)n1Cc1ccccc1,9.36
13,CC(NC(=O)c1ccco1)C(=O)NC(C)c1cc(F)c(Cl)cc1Cl (centres unmarked),19.1
14,O=C(Cc1ncc(C(F)(F)F)cc1Cl)NC1CC1,6.45
15,Cn1c(-c2csc(-c3ccccc3)n2)n[nH]c1=S,8.8
16,CCC(=O)Nc1nnc(SCc2ccccc2F)s1,10.2
17,COC(=O)C1CCN(C(=O)/C(C)=C\c2ccccc2)CC1,9.9
18,O=C(NCCc1c[nH]c2ccccc12)c1ccc(-n2cnnn2)cc1,-2.19
19,Cc1ccc(CN(C(=O)COc2ccc([N+](=O)[O-])cc2)C2CCS(=O)(=O)C2)o1 (centres unmarked),-3.95

# From publication PMC4336329 (PLoS ONE, 2015)
